The list shows a part of the results. These are noisy estimates, calculated here from bound and input reads.

This test addresses T1, Pho4 (S. cerevisiae) (UniProt P07270).
T1 sequence: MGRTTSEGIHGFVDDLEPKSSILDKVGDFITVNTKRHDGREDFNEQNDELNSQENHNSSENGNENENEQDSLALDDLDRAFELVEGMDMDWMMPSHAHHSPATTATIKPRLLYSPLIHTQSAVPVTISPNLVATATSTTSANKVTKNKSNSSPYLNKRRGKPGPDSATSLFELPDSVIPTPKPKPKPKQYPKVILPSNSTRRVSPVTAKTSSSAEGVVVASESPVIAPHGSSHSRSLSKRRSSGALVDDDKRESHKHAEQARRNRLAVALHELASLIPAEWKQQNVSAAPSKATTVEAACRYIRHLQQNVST
Kind of test: relative binding free energy (BET-seq); higher = weaker binding. To be noted: reference: library average.
Consider TGAGACACGTGGTGCG, for which the “relative binding free energy” value is -0.11 kcal/mol. In the case of AGTATCACGTGTGGCT, the “relative binding free energy” value came to 0.11 kcal/mol.

For GTGAACACGTGTTCGG, the “relative binding free energy” value was determined as 0.02 kcal/mol.

Consider ATTAACACGTGGTTTT, for which the “relative binding free energy” value turned out to be 0.01 kcal/mol.

For the sequence TGGCTCACGTGTTTGC, the “relative binding free energy” value came out at 0.26 kcal/mol.

As to GTGAGCACGTGTAGTC, the “relative binding free energy” value stood at 0.01 kcal/mol.

Regarding TAGAGCACGTGTTTAT, the “relative binding free energy” value was -0.15 kcal/mol. The figure for AGTTGCACGTGGACTG is 0.07 kcal/mol.

Regarding AATGGCACGTGTGTGA, the “relative binding free energy” value stood at 0.05 kcal/mol.

For CGTGTCACGTGTCAGG, the “relative binding free energy” value came to 0.01 kcal/mol. The result for CGGGTCACGTGAATTT reads 0.33 kcal/mol; that for AGTTCCACGTGGTAGG, -0.06 kcal/mol.

For the sequence TACTACACGTGGTGTT, the “relative binding free energy” value was -0.08 kcal/mol.

For AAGGTCACGTGTAGTA, the “relative binding free energy” value came to 0.06 kcal/mol.

Regarding GGGTACACGTGTGCGT, the “relative binding free energy” value amounted to 0.14 kcal/mol. The figure for GGATGCACGTGTGTAG is -0.05 kcal/mol; for AGTAACACGTGTCGGG it is -0.01 kcal/mol. The figure for TAGGGCACGTGGTAGA is -0.11 kcal/mol. Consider AAGTACACGTGTTGTA, for which the “relative binding free energy” value is -0.06 kcal/mol. Turning to CTGGGCACGTGTTTAG, the “relative binding free energy” value was -0.13 kcal/mol.

Take AACGGCACGTGTTAAG: the “relative binding free energy” value was 0.14 kcal/mol. The figure for AAATCCACGTGTTTTT is 0.16 kcal/mol; for AGGCGCACGTGTGTAT it is -0.01 kcal/mol.

Take ATGTTCACGTGCCGGT: the “relative binding free energy” value was determined as 0.13 kcal/mol. The figure for TGCAACACGTGCTGGT is -0.02 kcal/mol. The result for TTACGCACGTGTTTTG reads 0 kcal/mol; that for GGGGACACGTGTAACG, 0.25 kcal/mol. With TTAGACACGTGTGGCT, the “relative binding free energy” value was -0.05 kcal/mol.

With TGACTCACGTGTGCGG, the “relative binding free energy” value was 0.32 kcal/mol. The figure for AGGGGCACGTGGGGCA is -0.26 kcal/mol. The figure for TTTATCACGTGTGAGA is 0.21 kcal/mol; for GTGCACACGTGGAAGG it is 0.08 kcal/mol; for GATGGCACGTGGTAAA it is -0.07 kcal/mol. As for ATGCTCACGTGTTTTA, the “relative binding free energy” value amounted to 0.12 kcal/mol. The figure for CATGGCACGTGTTATA is 0.03 kcal/mol.

For the sequence CTTTTCACGTGAGGTG, the “relative binding free energy” value is 0.41 kcal/mol. Consider CTATGCACGTGCTGGG, for which the “relative binding free energy” value is -0.08 kcal/mol. The result for AGCTACACGTGAGGGA reads 0.28 kcal/mol; that for AGGTACACGTGTGTCT, 0.03 kcal/mol; that for ATGGACACGTGGGATG, -0.17 kcal/mol. Take TAAGTCACGTGGGGAT: the “relative binding free energy” value is -0.04 kcal/mol.

On to GGGAGCACGTGGATTT, for which the “relative binding free energy” value turned out to be 0.05 kcal/mol.

TATATCACGTGAGAAT: the “relative binding free energy” value amounted to 0.48 kcal/mol. The figure for ATTCTCACGTGGCTGT is 0.28 kcal/mol. Regarding AATGTCACGTGGTAAT, the “relative binding free energy” value worked out at 0.16 kcal/mol. The figure for TATATCACGTGGTGGG is 0.12 kcal/mol; for TTCTGCACGTGAGGGG it is 0.15 kcal/mol; for ATGTTCACGTGATCTT it is 0.11 kcal/mol. The figure for GAGGGCACGTGTAGGG is -0.01 kcal/mol. The figure for TTAATCACGTGGTCTG is 0.03 kcal/mol; for AGAGGCACGTGAGGAG it is 0.15 kcal/mol. As to TAGTTCACGTGTTGAA, the “relative binding free energy” value was 0.26 kcal/mol.

For CGTAGCACGTGTATTA, the “relative binding free energy” value is -0.05 kcal/mol. For the sequence GGGTACACGTGGAAGT, the “relative binding free energy” value came to 0.26 kcal/mol. Regarding TGATTCACGTGCGGCT, the “relative binding free energy” value amounted to 0.25 kcal/mol. The figure for TGGAACACGTGCGTTG is 0.12 kcal/mol; for GGATACACGTGGGGCG it is 0.01 kcal/mol; for AGTAGCACGTGCTGTA it is -0.09 kcal/mol. For AAGTTCACGTGGGCGT, the “relative binding free energy” value was 0.19 kcal/mol. As to GCGTGCACGTGAATGT, the “relative binding free energy” value was determined as 0.21 kcal/mol. The result for GGTCGCACGTGGAAGG reads 0.01 kcal/mol; that for AGGTTCACGTGGTTTG, 0.35 kcal/mol. Take CGGTTCACGTGAGAGT: the “relative binding free energy” value was determined as 0.35 kcal/mol. Regarding AGGGTCACGTGCAGCG, the “relative binding free energy” value is 0.14 kcal/mol. In the case of GGTGTCACGTGAATGT, the “relative binding free energy” value was 0.29 kcal/mol. The figure for CGAAACACGTGGGCGG is -0.08 kcal/mol; for TTCTACACGTGTTTCG it is 0.21 kcal/mol; for TACATCACGTGTTGTA it is 0.11 kcal/mol.

As to GTGCGCACGTGAAAGT, the “relative binding free energy” value turned out to be 0.26 kcal/mol.

Consider TGCGTCACGTGGTAAT, for which the “relative binding free energy” value is -0.11 kcal/mol. For the sequence GTTATCACGTGCTTGA, the “relative binding free energy” value was determined as 0.11 kcal/mol.

For CGGGTCACGTGGAGCG, the “relative binding free energy” value is 0.09 kcal/mol. Turning to GTCGTCACGTGGGATT, the “relative binding free energy” value is 0.06 kcal/mol. As for TAATGCACGTGAGGGA, the “relative binding free energy” value was found to be 0.3 kcal/mol. The result for TCTAACACGTGGTTTT reads -0.01 kcal/mol. For TACTTCACGTGGTTTG, the “relative binding free energy” value was determined as 0.24 kcal/mol. The result for GGTGCCACGTGAGAGG reads 0.14 kcal/mol; that for GCAGGCACGTGGTGAT, -0.26 kcal/mol.

Consider GTTGACACGTGTACGT, for which the “relative binding free energy” value turned out to be 0.13 kcal/mol.

In the case of GGAAGCACGTGTTTTT, the “relative binding free energy” value was -0.06 kcal/mol. With GAGTGCACGTGATTCG, the “relative binding free energy” value was determined as 0.24 kcal/mol. As for ATGCTCACGTGTTTAG, the “relative binding free energy” value was 0.22 kcal/mol. For the sequence ACGTACACGTGGGATG, the “relative binding free energy” value is 0 kcal/mol. The result for GTGTTCACGTGGAGTG reads 0.36 kcal/mol. The figure for GGGATCACGTGCGATG is 0.14 kcal/mol; for AGAAACACGTGGGGGG it is -0.09 kcal/mol; for TTCCTCACGTGGTAGT it is 0.18 kcal/mol. The result for CATTTCACGTGTGGTA reads 0.24 kcal/mol; that for TTTAGCACGTGGATGT, -0.12 kcal/mol; that for TACGACACGTGGTTTT, 0.01 kcal/mol.

As for GAAGGCACGTGGGGGT, the “relative binding free energy” value was -0.19 kcal/mol. With TGCATCACGTGGTAAT, the “relative binding free energy” value came to 0.08 kcal/mol.

As for TGCTTCACGTGGACTG, the “relative binding free energy” value stood at 0.29 kcal/mol. For TACGGCACGTGGGTGA, the “relative binding free energy” value is -0.15 kcal/mol. As for AATAGCACGTGTTAGT, the “relative binding free energy” value is -0.08 kcal/mol. As to AGAGTCACGTGAGTTT, the “relative binding free energy” value is 0.33 kcal/mol. On to GTTGGCACGTGGTGTG, for which the “relative binding free energy” value is -0.1 kcal/mol. The result for AGAGGCACGTGCAGTG reads -0.03 kcal/mol; that for AATTTCACGTGTCGAT, 0.41 kcal/mol. Consider GTATTCACGTGCTGGT, for which the “relative binding free energy” value stood at 0.2 kcal/mol.

With ATACTCACGTGAGTTA, the “relative binding free energy” value stood at 0.35 kcal/mol.

Regarding ATGTTCACGTGGTTCT, the “relative binding free energy” value came to 0.15 kcal/mol. The figure for GAGGGCACGTGTAAAA is 0.21 kcal/mol. Turning to TGATACACGTGAGGTA, the “relative binding free energy” value is 0.2 kcal/mol.

As for TTAGCCACGTGATGGG, the “relative binding free energy” value worked out at 0.06 kcal/mol. In the case of AATTGCACGTGAATGT, the “relative binding free energy” value turned out to be 0.11 kcal/mol. Regarding TGATTCACGTGTAACA, the “relative binding free energy” value is 0.47 kcal/mol. The figure for GGGCGCACGTGAGTTA is 0.13 kcal/mol; for TTAGTCACGTGGTGAT it is -0.05 kcal/mol; for TATTGCACGTGGCGGA it is -0.1 kcal/mol.

GGGTGCACGTGGGCAA: the “relative binding free energy” value is -0.12 kcal/mol.

As for TACGACACGTGTGTAG, the “relative binding free energy” value turned out to be 0.14 kcal/mol. Turning to TTGTTCACGTGTGGTG, the “relative binding free energy” value is 0.25 kcal/mol. The figure for ACTGACACGTGTATGG is 0.1 kcal/mol; for TTTATCACGTGGGATA it is 0.12 kcal/mol.

The values above are taken from the BET-seq Pho4 binding data (Le et al. 2018).
